# Measured values as given in the supplement of paper PMC6531468.
# This is one part of the list. These are enrichments in a pooled selection; single values are uncertain. Each score is taken over the longer molecules that contain the sequence shown.
# System: IMP3 RRM1-2
# Assay: 6-mer SELEX enrichment z-score vs GST control; IMP3 is the RNA-binding protein IGF2BP3; higher = more enriched by binding
# Conditions: construct: RRM1-2 (1-163); SELEX round: R2
# Procedure: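 SELEX-seq with GST-tagged IMP3 RRM1-2 (Met1-Asn163) and an N40 RNA pool, round 2. 6-mer enrichment z-score normalised to GST SELEX. RNA written as DNA (T = U).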
# IMP3 RRM1-2, sequence (chain, as listed by the source): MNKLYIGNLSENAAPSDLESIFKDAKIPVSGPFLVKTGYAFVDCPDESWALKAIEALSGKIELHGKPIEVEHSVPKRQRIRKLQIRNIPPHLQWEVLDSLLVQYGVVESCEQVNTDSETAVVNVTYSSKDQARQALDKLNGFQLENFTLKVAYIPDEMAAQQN
row,Sequence,6-mer SELEX enrichment z-score
1,TATCCC,-0.426
2,AGTCGG,0.433
3,ACGACC,-1.19
4,GTTCCA,0.246
5,CTTACG,-0.093
6,AGCGAC,-0.331
7,CACCTG,-0.183
8,TTCAGC,0.745
9,CGCCAG,-0.22
10,GACGCA,-0.051
11,AAAGAG,-1.77
12,ACTCCA,0.011
13,GTCGTA,0.108
14,TTCTCG,0.468
15,TACGCA,0.378
16,GCGCGT,0.203
17,ATCGCC,-0.234
18,ACGTAG,-0.078
19,CCCGAA,-1.89
20,GGTTAA,-0.034

row,Sequence,6-mer SELEX enrichment z-score
1,GCTACC,-0.013
2,CGTGTT,0.152
3,TCCGGC,0.146
4,CGGTCT,0.224
5,TACAGT,0.427
6,TTAGTC,0.433
7,TATCGA,-0.124
8,TCTTGA,0.235
9,CGACGT,-0.376
10,AATGCC,-0.962
11,CGCTTC,0.224
12,GTAAAA,-1.63
13,GCCAGG,-0.262
14,AGGGAA,-0.765
15,GTGTTC,0.314
16,TGAACG,-1.09
17,ATGGGA,-0.204
18,TGGAGC,-0.031
19,TCGAAA,-1.07
20,CTTTCG,0.199
